Data from US20250295802A1, “HER3 ANTIBODY-DRUG CONJUGATE AND USE THEREOF” (DUALITY BIOLOGICS (SUZHOU) CO., LTD., priority 2022, published 2025).

Experiments:
[1] = tested on: NCI-H441 xenograft; test: Efficacy in NCI-H441 lung cancer cell tumor-bearing mice; type: in vivo, mouse; details: tail vein 1 time, 28 days
Protocol: Tumor-Bearing Mice Objective To evaluate the anti-tumor effect of the antibody-drug conjugates of the present application in NCI-H441 tumor-bearing mice using male NU/NU nude mice as test animals. […] The test mice were inoculated subcutaneously on the right dorsum with 5×10^6 NCI-H441 cells, and the cells were resuspended in 0.1 mL of PBS and Matrigel (1:1). The growth of the tumors was monitored periodically. […] The day of administration for each group was defined as day 0. The administration was performed by tail vein injection for 1 time, and the experiment ended 28 days after the administration. The tumor volume and weight were measured twice a week, and the data were recorded. At the end of the experiment, mice were euthanized and tumor growth inhibition TGI % was calculated as follows: […] Ti: mean tumor volumes of the treatment groups and the positive control group on day i of administration; T0: mean tumor volumes of the treatment groups and the positive control group on day 0 of administration; Vi: mean tumor volume of the negative control group on day i of administration; V0: mean tumor volume of the negative control group on day 0 of administration. Data were analyzed using Excel 2016 statistical software, wherein the mean value was calculated as avg; the SD value was calculated as STDEV; and the P value of the difference between groups was calculated as TTEST.

[2] = tested on: MDA-MB-231 cells; test: In vitro proliferation inhibition (CTG), MDA-MB-231; type: cell-based; details: 6 days of culture, not expressing Her3
Protocol: To test the proliferation inhibitory activity of the antibody-drug conjugate of the present application targeting HER3 to HCC1569 and MDA-MB-453 cells with high expression of Her3 and MDA-MB-231 tumor cells not expressing Her3 in vitro. The cells were treated with the antibody-drug conjugates at different concentrations in vitro, and after 6 days of culture, the proliferation of cells was detected using the CTG reagent, and the in vitro activity of the compounds was evaluated according to the 50% growth inhibitory concentration (IC50) value.
• 1. Cell culture: HCC1569, MDA-MB-453, or MDA-MB-231 cells were cultured in RPMI-1640 medium containing 10% FBS. • 2. Cell Preparation: HCC1569, MDA-MB-453, or MDA-MB-231 cells in logarithmic phase were taken, washed with PBS once, and digested with 2-3 mL of trypsin for 2-3 min. After the cells were digested completely, 10-15 mL of cell culture was added to elute the digested cells. […] The cells were stained with trypan blue and viable cells were counted. • 3. […] Sample adding: the prepared samples to be detected at different concentrations were added to the culture plate, and two duplicate wells were set for each sample. […] Plate reading: the 96-well cell culture plate was taken out, placed in a 2104 EnVision microplate reader, and measured for the chemiluminescence using the microplate reader. […]

[3] = tested on: Colo205 xenograft; test: Efficacy in Colo205 tumor-bearing mice; type: in vivo, mouse; details: 1 mg/kg tail vein 1 time every two weeks; end of experiment, 22 days
Protocol: To evaluate the anti-tumor effect of the antibody-drug conjugates of the present application using BALB/c nude mice as test animals; • Blank control (negative control group): […] Colo205 cells were subcutaneously inoculated into the right flank of the mice, 1×10^7 cells (100 μL/mouse). When the tumors grew to 80-120 mm^3, the animals were randomly grouped, 5 animals per group. The day of administration for each group was defined as day 0. The administration was performed by tail vein injection 1 time every two weeks, and the experiment ended 22 days after the administration. The tumor volume and weight were measured twice a week, and the data were recorded. At the end of the experiment, mice were euthanized and tumor growth inhibition TGI % was calculated as follows: (TGI=(1−(Ti−T0)/(Vi−V0))). Ti: mean tumor volumes of the treatment groups and the positive control group on day i of administration; T0: mean tumor volumes of the treatment groups and the positive control group on day 0 of administration; Vi: mean tumor volume of the negative control group on day i of administration; V0: mean tumor volume of the negative control group on day 0 of administration. Data were analyzed using Excel 2016 statistical software, wherein the mean value was calculated as avg; the SD value was calculated as STDEV; and the P value of the difference between groups was calculated as TTEST.

[4] = tested on: human lung cancer LU1542 subcutaneous xenograft; test: Efficacy in human lung cancer LU1542 subcutaneous xenograft tumor-bearing mice; type: in vivo, mouse; details: tail vein 1 time, end of experiment, 28 days
Protocol: To evaluate the anti-tumor effect of the antibody-drug conjugates of the present application in human lung cancer LU1542 subcutaneous xenograft tumor-bearing mice using female BALB/c nude mice as test animals. • Blank control (negative control group): […] The day of administration for each group was defined as day 0. The administration was performed by tail vein injection for 1 time, and the experiment ended 28 days after the administration. The tumor volume and weight were measured twice a week, and the data were recorded. At the end of the experiment, mice were euthanized and tumor growth inhibition TGI % was calculated as follows: (TGI=(1−(Ti−T0)/(Vi−V0))). Ti: mean tumor volumes of the treatment groups and the positive control group on day i of administration; T0: mean tumor volumes of the treatment groups and the positive control group on day 0 of administration; Vi: mean tumor volume of the negative control group on day i of administration; V0: mean tumor volume of the negative control group on day 0 of administration. Data were analyzed using Excel 2016 statistical software, wherein the mean value was calculated as avg; the SD value was calculated as STDEV; and the P value of the difference between groups was calculated as TTEST.

B1: ADC-1-X2: anti-Her3 antibody hu3F8-2 conjugated with linker-payload X2, DAR 7.53 (conjugate)
heavy: QVQLQESGPGLVKPSETLSLTCTVSGYSITSAYYWNWIRQPFGKGLEWMGYISYDGRNNFNPSLKNRVTISRDTSKNQFSLKLSSVTAADTAVYYCARDGDYDYFDYWGQGTTVTVSS[human IgG1 constant region left out]
light: DIQMTQSPSSLSASVGDRVTITCRASQDISNYLNWYQQKPGKAPKLLIYYTSILHSGVPSRFSGSGSGTDYTFTISSLQPEDIATYFCQQGDTLPPTFGGGTKLEIKRTVAAPSVFIFPPSDEQLKSGTASVVCLLNNFYPREAKVQWKVDNALQSGNSQESVTEQDSKDSTYSLSSTLTLSKADYEKHKVYACEVTHQGLSSPVTKSFNRGEC
T/C (%) ([1]; dose 0.3 mg/kg): 61.91%
TGI (%) ([1]; dose 0.3 mg/kg): 38.09%
Tumor volume (mean ± SEM) ([1]; dose 0.3 mg/kg): 546.52 ± 109.10
T/C (%) ([1]; dose 1 mg/kg): 18.35%
TGI (%) ([1]; dose 1 mg/kg): 81.65%
Tumor volume (mean ± SEM) ([1]; dose 1 mg/kg): 162.00 ± 42.47
IC50 [2]: > 100 nM
Mean tumor volume [3]: 263.20 ± 105 mm^3
Tumor growth inhibition % [3]: 49.09%
Mean tumor volume ([4]; 3 mg/kg): 461.39 ± 106.26 mm^3
Tumor growth inhibition % ([4]; 3 mg/kg): 77.50%
Mean tumor volume ([4]; 10 mg/kg): 302.78 ± 129.69 mm^3
Tumor growth inhibition % ([4]; 10 mg/kg): 88.49%
